According to PubChem BioAssay AID1347428 (National Center for Advancing Translational Sciences (NCATS), 2020):
Out of some 91,000 compounds screened, about 290 (0.32%) were called active. The inconclusive results got no clear call from the source; some entries with a clear call stand among them for comparison. Calls follow the shape of the dose curve; as a rule, active = well fitted inhibition curve with a large enough effect; inconclusive = small, poorly fitted or top-dose-only effect; inactive = no such curve, though single readings can be large or run the other way. Potencies of inconclusive entries are doubtful fits and often do not repeat.

Molecular target: Single-stranded DNA cytosine deaminase (Homo sapiens) (UniProt Q9GZX7)
Chain of UniProt Q9GZX7 (Q9GZX7 whole entry, looked up): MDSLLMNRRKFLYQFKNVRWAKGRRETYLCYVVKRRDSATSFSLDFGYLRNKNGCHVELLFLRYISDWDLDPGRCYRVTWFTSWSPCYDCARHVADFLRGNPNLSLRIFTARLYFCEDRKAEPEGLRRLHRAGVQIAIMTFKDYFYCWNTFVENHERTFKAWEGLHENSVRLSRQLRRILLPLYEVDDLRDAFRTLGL
Experiment: Primary qHTS assay for inhibitors of Activation Induced Cytidine Deaminase (AID): AID signal; also: nearly all actives have a fitted effect of over 25% in size
Conditions: AID deamination FRET fluorescence, UDG-coupled, 4 h; series mostly up to 115 µM
Potency is read from the fitted curve at half-maximal effect; tags tell the direction and shape of the fitted curve.

Question: Cc1ccc(-c2n[nH]c3c2C(c2cccs2)N(c2ccc(Cl)cc2)C3=O)cc1 (stereo not given) was tested. Which Potency did it give?
Answer: inconclusive: 89.1 µM [inhibitor, single point]

Question: With COc1cccc(CSc2nc(-c3ccccc3OC)nc3c2Cc2c(CO)cnc(C)c2O3)c1 as the compound, how does the Potency read?
Answer: inconclusive: 17.8 µM [inhibitor, full curve, poor fit]

Question: Which Potency does the source give for CSc1nn(Cc2ccc(F)cc2)c(N)c1S(=O)(=O)c1ccc(Cl)cc1 here?
Answer: inconclusive: 35.5 µM [inhibitor, full curve, poor fit]

Question: How did the Potency turn out when COc1ccc(C(=O)Nc2ccc(N3CCN(S(C)(=O)=O)CC3)cc2)cc1OC was run?
Answer: inactive

Question: O=C(COC(=O)c1ccc(S(=O)(=O)NCc2ccco2)cc1)c1ccc(F)cc1 was tested. Which Potency did it give?
Answer: inactive

Question: For O=C(CSc1ccc2ccccc2c1)OCC(=O)c1ccc2c(c1)OCCO2, which Potency is on record?
Answer: inactive

Question: With COc1ccc(-c2cn3c(n2)sc2cc(C(=O)N4CCCCC4)ccc23)cc1 as the compound, how does the Potency read?
Answer: inconclusive: 35.5 µM [inhibitor, full curve]

Question: CCC(CC)c1nn2cc(-c3ccccc3)nc2s1 was tested. Which Potency did it give?
Answer: inconclusive: 22.4 µM [inhibitor, partial curve, poor fit]

Question: For O=C(O)CSCc1cccc(Br)c1, which Potency is on record?
Answer: inactive

Question: How did the Potency turn out when Cc1ccc(NC(=O)COc2ccc(-c3nn(C)c(=O)c4ccccc34)cc2)c(C)c1 was run?
Answer: inconclusive: 79.4 µM [inhibitor, single point]

Question: How did the Potency turn out when COC(=O)c1cc(C)nc2c1c(=O)nc(SCc1c(C)cc(C)cc1C)n2C1CC1 was run?
Answer: inconclusive: 39.8 µM [inhibitor, full curve]

Question: Which Potency does the source give for CS(=O)(=O)NCCCNC(=O)c1cnc2ccccc2n1 here?
Answer: inactive

Question: For CC(C)Oc1cccc(C(=O)Nc2ccc3oc(-c4ccccc4)nc3c2)c1, which Potency is on record?
Answer: inconclusive: 15.8 µM [inhibitor, partial curve, poor fit]

Question: Which Potency does the source give for Cc1ccc2nc(CN3CCN(S(=O)(=O)c4ccccc4)CC3)oc2c1 here?
Answer: inactive

Question: For CCOc1ccc(NC(=O)CSC2=C(C#N)C(c3ccc(Cl)cc3)C3=C(CCCC3=O)N2)cc1 (stereo not given), which Potency is on record?
Answer: inactive

Question: With Cc1ccccc1CNC(=O)CCSCc1cnn(-c2ccccc2)c1-n1cccc1 as the compound, how does the Potency read?
Answer: inconclusive: 44.7 µM [inhibitor, partial curve]

Question: Cc1ccoc1C(=O)OCCOc1ccc(C#N)cc1 was tested. Which Potency did it give?
Answer: inactive

Question: For Cc1ccc(NC(=O)C(c2ccccc2)N2Cc3ccccc3C2=O)cc1Cl (stereo not given), which Potency is on record?
Answer: inconclusive: 100 µM [inhibitor, partial curve, poor fit]

Question: For COc1ccc(CNc2cc(-c3ccc(OC)cc3)nc3nncn23)cc1, which Potency is on record?
Answer: inconclusive: 31.6 µM [inhibitor, partial curve, poor fit]

Question: For c1ccc(-c2cc(-c3ccccc3)[o+]c(-c3ccccc3)c2)cc1, which Potency is on record?
Answer: inactive
